{
  "source": "PubChem BioAssay AID1347165",
  "about": "(National Center for Advancing Translational Sciences (NCATS), 2019)",
  "note": "About 5,700 (2.6%) of roughly 220,000 compounds were called active. Inconclusive means that the source gave no clear call. Such entries were picked first, then a sample of the others. The call rests on the fitted dose curve; in most records, active means well fitted inhibition curve with a large enough effect; inconclusive means small, poorly fitted or top-dose-only effect; inactive means no such curve, though single readings can be large or run the other way. Where the call is inconclusive, the potency comes from a doubtful curve fit. Potency means the concentration at half of the fitted maximal effect; tags describe the fitted curve by direction and shape.",
  "data": [
    {"target": "Lysine-specific demethylase 5B (Homo sapiens) (UniProt Q9UGL1)", "sequence (Q9UGL1 whole entry, looked up)": "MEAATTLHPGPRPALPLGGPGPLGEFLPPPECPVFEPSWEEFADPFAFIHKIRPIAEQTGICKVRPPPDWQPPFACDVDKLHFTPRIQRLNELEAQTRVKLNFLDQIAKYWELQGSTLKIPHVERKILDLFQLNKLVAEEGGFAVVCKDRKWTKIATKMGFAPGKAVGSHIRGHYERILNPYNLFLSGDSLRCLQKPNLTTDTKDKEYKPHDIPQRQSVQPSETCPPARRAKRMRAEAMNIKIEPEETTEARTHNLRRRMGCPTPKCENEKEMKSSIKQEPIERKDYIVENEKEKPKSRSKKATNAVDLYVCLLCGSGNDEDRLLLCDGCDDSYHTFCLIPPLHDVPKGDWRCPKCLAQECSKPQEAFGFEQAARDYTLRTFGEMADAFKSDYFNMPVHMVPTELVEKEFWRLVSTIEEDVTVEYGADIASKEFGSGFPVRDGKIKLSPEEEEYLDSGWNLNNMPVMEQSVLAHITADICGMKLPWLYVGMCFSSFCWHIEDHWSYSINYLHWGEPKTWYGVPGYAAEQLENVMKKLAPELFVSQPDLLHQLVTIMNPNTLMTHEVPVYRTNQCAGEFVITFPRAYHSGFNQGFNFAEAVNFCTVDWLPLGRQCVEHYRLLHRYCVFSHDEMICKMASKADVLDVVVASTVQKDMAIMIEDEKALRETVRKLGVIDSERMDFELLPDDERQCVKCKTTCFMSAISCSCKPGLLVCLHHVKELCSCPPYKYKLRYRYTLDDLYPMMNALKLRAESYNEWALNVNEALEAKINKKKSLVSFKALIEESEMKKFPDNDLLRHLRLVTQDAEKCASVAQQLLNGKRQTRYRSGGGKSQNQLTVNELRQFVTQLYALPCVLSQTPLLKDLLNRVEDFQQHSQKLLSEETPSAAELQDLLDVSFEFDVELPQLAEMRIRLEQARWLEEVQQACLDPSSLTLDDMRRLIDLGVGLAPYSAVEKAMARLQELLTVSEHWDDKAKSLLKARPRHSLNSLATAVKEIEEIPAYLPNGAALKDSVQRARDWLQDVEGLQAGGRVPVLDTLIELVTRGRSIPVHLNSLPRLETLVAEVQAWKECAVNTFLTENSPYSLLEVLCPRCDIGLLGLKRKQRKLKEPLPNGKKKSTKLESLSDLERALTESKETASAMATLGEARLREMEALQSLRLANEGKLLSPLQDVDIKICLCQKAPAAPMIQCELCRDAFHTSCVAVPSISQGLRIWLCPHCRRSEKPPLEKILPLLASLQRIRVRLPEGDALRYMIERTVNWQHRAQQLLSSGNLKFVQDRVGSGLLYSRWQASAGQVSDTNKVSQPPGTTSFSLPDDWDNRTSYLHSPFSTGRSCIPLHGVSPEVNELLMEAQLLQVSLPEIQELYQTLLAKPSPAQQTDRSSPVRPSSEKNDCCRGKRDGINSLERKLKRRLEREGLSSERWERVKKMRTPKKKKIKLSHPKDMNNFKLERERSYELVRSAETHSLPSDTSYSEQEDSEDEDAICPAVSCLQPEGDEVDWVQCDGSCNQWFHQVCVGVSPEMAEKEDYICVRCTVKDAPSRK", "test": "Primary screen for KDM5B Histone Demethylases FDH-coupled qHTS; further: nearly all actives have a fitted effect of over 70% in size; on activity change, negative = inhibition: 0% is about no effect", "details": "FDH-coupled NADH fluorescence (FDH is formaldehyde dehydrogenase); activity change, negative = inhibition: at 57.7 µM (top of the series) unless noted", "outline": "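Here, H3K4me3 peptide (12.5 µM in substrate mix) is demethylated by KDM5BΔAP, 200 nM final, after 10 min compound exposure. Formaldehyde product is coupled through FDH (0.25 U/mL in mix) to NADH fluorescence; 30-min ΔRFU feeds dose-response curves.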", "values": [
      {"smiles": "O=C(C1COc2ccccc2O1)N1CCc2nc3cc(-c4ccccc4)[nH]n3c(=O)c2C1", "note": "(stereo unspecified)", "Potency": "inconclusive: 31.6 µM [inhibitor, single point]"},
      {"smiles": "Cc1ccc2nc(C)c(C(=O)NC(C)c3ccccc3)cc2c1", "note": "(stereo unspecified)", "activity change, negative = inhibition": "inactive: -24.9%"},
      {"smiles": "CC(C)(C)C(=O)Nc1oc(-c2ccccc2)c(-c2ccccc2)c1C#N", "Potency": "inconclusive: 31.6 µM [inhibitor, single point]"},
      {"smiles": "COc1cc(C(=O)/C=C/c2ccc(SC)cc2)ccc1O", "activity change, negative = inhibition": "inactive: -25.8%"},
      {"smiles": "Cc1cccc(CN2CCc3nc(C(=O)Nc4ccc(Cl)cc4)oc3CC2)c1", "Potency": "active: 31.6 µM"},
      {"smiles": "COc1c(C)cccc1C(=O)Nc1ccc(Cl)c(-c2nc3cc(C)ccc3o2)c1", "Potency": "inconclusive: 25.1 µM [inhibitor, partial curve, poor fit]"},
      {"smiles": "O=C(O)c1cccnc1OC1CCNCC1", "Potency": "inconclusive: 25.1 µM [inhibitor, partial curve]"},
      {"smiles": "CCNC(=O)Nc1ccc2c(c1)CN(Cc1ccc(Cl)cc1)C(=O)C(C)O2", "note": "(stereo unspecified)", "Potency": "inconclusive: 35.5 µM [inhibitor, partial curve, poor fit]"},
      {"smiles": "N#Cc1ccc(NC(=O)c2ccc3c(c2)OCCCO3)cc1", "activity change, negative = inhibition": "inactive: 6.79%"},
      {"smiles": "CCOc1ccc2nc(SCCNCCO)sc2c1", "activity change, negative = inhibition": "inactive: 9.15%"},
      {"smiles": "O=C(NCc1ccccn1)c1ccc2ccccc2c1", "activity change, negative = inhibition": "inactive: -18.1%"},
      {"smiles": "COCCCNc1nc2c(c(=O)[nH]c(=O)n2C)n1CCc1ccc(OC)cc1", "activity change, negative = inhibition": "inactive: -1.92%"},
      {"smiles": "CCNC(=O)NC(=O)CN(Cc1ccccc1)c1ccccc1", "activity change, negative = inhibition": "inactive: 14.5%"},
      {"smiles": "COCCNC(=O)[C@H]1C[C@H](Oc2cccnc2)CN1C(=O)Nc1cccc(F)c1", "activity change, negative = inhibition": "inactive: -9.86%"},
      {"smiles": "CC(C)=NNc1nc2c(c(=O)[nH]c(=O)n2C)n1CCCc1ccccc1", "Potency": "inconclusive: 25.1 µM [inhibitor, single point]"},
      {"smiles": "Cc1cc(C)nc(N/N=C/c2cc(Br)ccc2O)n1", "Potency": "inconclusive: 31.6 µM [inhibitor, single point]"},
      {"smiles": "COc1cc(/C=C2\\CCCc3c2nc2ccccc2c3C(=O)O)cc(OC)c1O", "Potency": "inconclusive: 14.1 µM [inhibitor, partial curve, poor fit]"},
      {"smiles": "COC(=O)[C@@H]1Cc2c([nH]c3ccccc23)[C@H]2C[C@@H](NCCO)C[C@@H](c3ccccc3)N21", "Potency": "inconclusive: 5.62 µM [inhibitor, partial curve, poor fit]"},
      {"smiles": "CSCc1ccc(C(=O)N2CCOCC(O)(CN3CCCC3)C2)o1", "note": "(stereo unspecified)", "Potency": "inconclusive: 12.6 µM [inhibitor, partial curve]"},
      {"smiles": "Cc1noc(C)c1S(=O)(=O)N1CC(c2noc(C3CCCN3C)n2)C1", "note": "(stereo unspecified)", "activity change, negative = inhibition": "inactive: 12.3%"},
      {"smiles": "N#Cc1cccc(C(=O)c2ccc3c(c2)OCCO3)c1", "activity change, negative = inhibition": "inactive: -2.6%"},
      {"smiles": "O=C(O)c1csc(-c2ccccc2)c1", "activity change, negative = inhibition": "inactive: 9.17%"},
      {"smiles": "CCCN1CCN(c2ccc(C(=O)O)cc2NS(=O)(=O)c2ccccc2)CC1", "Potency": "inconclusive: 1.78 µM [inhibitor, partial curve, poor fit]"},
      {"smiles": "O=C(Cn1c(-c2ccccc2)cc2ccccc21)N1CCCCC1", "Potency": "inconclusive: 14.1 µM [inhibitor, partial curve, poor fit]"},
      {"smiles": "COc1ccc(-c2c(C)c3ccc(O)c(CN4CCCCC4)c3oc2=O)cc1OC", "Potency": "inconclusive: 31.6 µM [inhibitor, partial curve, poor fit]"},
      {"smiles": "Cc1ccc2nc(N(Cc3cccnc3)C(=O)c3ccco3)sc2c1", "Potency": "inconclusive: 39.8 µM [inhibitor, single point]"},
      {"smiles": "Cc1cccc(N2CCN(C(=O)c3cn(C)c4ccc(S(=O)(=O)N(C)C)cc4c3=O)CC2C)c1", "note": "(stereo unspecified)", "Potency": "inconclusive: 5.62 µM [inhibitor, partial curve, poor fit]"},
      {"smiles": "COc1ccc(C2=CC(c3ccccc3Cl)n3nc(-c4ccc(C)cc4)nc3N2)cc1", "note": "(stereo unspecified)", "activity change, negative = inhibition": "inactive: 158%"},
      {"smiles": "CCOC(=O)Cn1c(=O)n(-c2ccccc2OC)c2nc(-c3ccccc3)nc(C(N)=O)c21", "Potency": "inconclusive: 39.8 µM [inhibitor, single point]"},
      {"smiles": "CCc1nnc(SCC(=O)Nc2ccc(Cl)cc2F)c2cc3occc3n12", "Potency": "inconclusive: 28.2 µM [inhibitor, partial curve, poor fit]"},
      {"smiles": "CCC(=O)NCc1ccccc1-c1ccnc(C)c1", "activity change, negative = inhibition": "inactive: 30.3%"},
      {"smiles": "Cc1ccc(-c2cc(C(=O)N(C)CCC#N)c3ccccc3n2)cc1", "Potency": "inconclusive: 22.4 µM [inhibitor, partial curve, poor fit]"},
      {"smiles": "COc1cc(NC(=O)N2CC3CCCN3c3ccccc32)cc(OC)c1OC", "note": "(stereo unspecified)", "Potency": "inconclusive: 20 µM [inhibitor, single point]"},
      {"smiles": "O=c1[nH]c(C2CCCN(Cc3cccc4ccccc34)C2)nn1-c1ccccc1", "note": "(stereo unspecified)", "Potency": "inconclusive: 17.8 µM [inhibitor, partial curve, poor fit]"},
      {"smiles": "Cn1c(Oc2ccc(F)cc2)c(C#N)c(=O)n(C)c1=O", "Potency": "inconclusive: 22.4 µM [inhibitor, partial curve, poor fit]"},
      {"smiles": "COc1ccccc1-c1ccc(CN2C3CCC2CN(C(=O)c2ccncc2)C3)cc1", "activity change, negative = inhibition": "inactive: -6.96% [at 115 µM]"},
      {"smiles": "COc1ccc(-c2ccc(CCC(=O)NC3CCCCC3)o2)cc1", "Potency": "inconclusive: 15.8 µM [inhibitor, partial curve, poor fit]"},
      {"smiles": "CCOc1ccccc1N(CC(=O)NCC1CCCO1)C(=O)CCC(=O)Nc1cc(C)on1", "note": "(stereo unspecified)", "Potency": "inconclusive: 39.8 µM [inhibitor, single point]"},
      {"smiles": "Cc1ccc(NS(=O)(=O)c2ccc(NC(C)c3ccc(C)o3)c([N+](=O)[O-])c2)c(C)c1", "note": "(stereo unspecified)", "activity change, negative = inhibition": "inactive: 0.562%"},
      {"smiles": "CCOC(=O)c1cnc(N2CCN(c3ccccn3)CC2)c2ccccc12", "Potency": "inconclusive: 31.6 µM [inhibitor, single point]"},
      {"smiles": "CC(C)c1ccc(C(=O)Nc2ccc(-c3nn4cnnc4s3)cc2)cc1", "Potency": "inconclusive: 2 µM [inhibitor, full curve, poor fit]"},
      {"smiles": "CCNC(=O)CCC[C@@H]1[C@H]2CCCN3CCC[C@@H](CN1C(C)=O)[C@@H]23", "Potency": "inconclusive: 20 µM [inhibitor, single point]"},
      {"smiles": "COc1nc2nc(CC3CC3)n(C)c2cc1-c1ccnc(C)c1", "Potency": "active: 39.8 µM"},
      {"smiles": "O=C(c1cc(-c2ccc(Cl)cc2)nc2ccccc12)N1CCC1", "Potency": "inconclusive: 39.8 µM [inhibitor, single point]"},
      {"smiles": "COc1ccc(-c2nn3c(CN4CCOCC4)nnc3s2)c(OC)c1", "Potency": "inconclusive: 22.4 µM [inhibitor, single point]"},
      {"smiles": "CCOC(=O)c1ccc(NC(=O)CC2Nc3cccc4cccc(c34)NC2=O)cc1", "note": "(stereo unspecified)", "Potency": "inconclusive: 14.1 µM [inhibitor, partial curve, poor fit]"},
      {"smiles": "CCc1nc(Nc2ccccc2OC)c2oc3ccccc3c2n1", "Potency": "inconclusive: 25.1 µM [inhibitor, partial curve, poor fit]"},
      {"smiles": "COc1cccc(NS(=O)(=O)c2ccc3[nH]c4c(c3c2)CCCCCC4)c1", "Potency": "inconclusive: 35.5 µM [inhibitor, single point]"},
      {"smiles": "COCCN(Cc1ccc(F)cc1)Cc1cc(=O)n2c3c(sc2n1)CCCC3", "Potency": "inconclusive: 25.1 µM [inhibitor, partial curve, poor fit]"},
      {"smiles": "CCOC(=O)c1oc2cc(OC)ccc2c(=O)c1-c1ccccc1OC", "activity change, negative = inhibition": "inactive: -7.78%"},
      {"smiles": "COC(=O)COc1ccc2c(c1)OCC2=O", "activity change, negative = inhibition": "inactive: -0.366%"},
      {"smiles": "COc1ccc(-c2nc3c([nH]2)CN(S(=O)(=O)N2CCCC2)CC3)cn1", "Potency": "inconclusive: 28.2 µM [inhibitor, partial curve, poor fit]"},
      {"smiles": "O=c1c2cc(Br)ccc2nc(-c2ccccc2)n1O", "Potency": "inconclusive: 39.8 µM [inhibitor, partial curve, poor fit]"},
      {"smiles": "NC(=O)C(Sc1ccccc1)c1ccccc1", "note": "(stereo unspecified)", "activity change, negative = inhibition": "inactive: 17.4%"},
      {"smiles": "O=C(NCc1ccccc1F)c1ccc2ccccc2n1", "activity change, negative = inhibition": "inactive: 21%"},
      {"smiles": "Cc1ccc(-c2cc(C(=O)NCC(C)C)c3ccccc3n2)o1", "Potency": "inconclusive: 28.2 µM [inhibitor, partial curve, poor fit]"},
      {"smiles": "Cc1ccccc1CSc1ncc(Cl)c(C(=O)NCc2ccccc2)n1", "Potency": "inconclusive: 15.8 µM [inhibitor, partial curve, poor fit]"},
      {"smiles": "Cc1cn2nc(C(=O)Nc3ccc4c(c3)OCCO4)cc2c(N(C)Cc2ccccc2)n1", "Potency": "active: 28.2 µM"},
      {"smiles": "NCc1cc(Cl)c2c(c1)OCCCO2", "activity change, negative = inhibition": "inactive: -3.77%"},
      {"smiles": "Fc1ccc(Nc2nc(SCc3cccc(F)c3)nc3ccccc23)cc1", "Potency": "inconclusive: 39.8 µM [inhibitor, partial curve, poor fit]"},
      {"smiles": "CCOC(=O)c1nnn(CC(=O)NC(=O)Nc2ccccc2F)c1C(=O)OCC", "activity change, negative = inhibition": "inconclusive: -30.9% [inhibitor]"},
      {"smiles": "Cc1ccc(NC(=O)Cn2cc(C#N)c3ccccc32)cc1F", "activity change, negative = inhibition": "inactive: 1.1%"},
      {"smiles": "c1cncc(-c2nc(Sc3ccc4c(c3)OCCCO4)c3ccccc3n2)c1", "activity change, negative = inhibition": "inactive: 4.04%"},
      {"smiles": "CN1CCN(C(=O)C(C)(C)Oc2nn(CC3CC3)c3ccc(CN4CCCC4)cc23)CC1", "Potency": "active: 35.5 µM"},
      {"smiles": "COc1ccc(-c2cn3c(n2)sc2cc(C(=O)Nc4ccc(F)cc4)ccc23)cc1", "Potency": "inconclusive: 5.01 µM [inhibitor, partial curve, poor fit]"},
      {"smiles": "Cc1cc(NC(=O)c2ccc(F)cc2)ccc1-c1cc2ccccc2oc1=O", "Potency": "inconclusive: 5.62 µM [inhibitor, partial curve, poor fit]"},
      {"smiles": "CN(C1CCOCC1)C1CCN(C(=O)c2cccnc2)CC1", "activity change, negative = inhibition": "inactive: 8.18%"},
      {"smiles": "OC1(c2csc(CN3CCN(c4ccccn4)CC3)n2)CCN(Cc2ccc(F)cc2)CC1", "Potency": "inconclusive: 3.16 µM [inhibitor, partial curve, poor fit]"},
      {"smiles": "O=C1NCc2ccccc2CC12CCN(CCCc1ccccc1)CC2", "activity change, negative = inhibition": "inactive: -2.67% [at 115 µM]"},
      {"smiles": "Cc1noc(C)c1-c1cc2cc(CN(C)C)oc2c(NCc2ccccc2)n1", "activity change, negative = inhibition": "inactive: -18.1% [at 86.2 µM]"},
      {"smiles": "CCOc1ccccc1CNC(=O)C(CC)n1nc(C)c2c(C)n(-c3ccccc3)nc2c1=O", "note": "(stereo unspecified)", "Potency": "inconclusive: 28.2 µM [inhibitor, partial curve, poor fit]"}
    ]}
  ]
}
